# Measured values: PubChem BioAssay AID1458 (National Center for Advancing Translational Sciences (NCATS), 2008)
# “And” between values parts separate entries of the source, which are not always exact repeats. Equal values may be shown once. In all, about 210,000 compounds went through this assay and about 5,900 (2.8%) were called active. This list was built around the results that the source calls inconclusive (neither active nor inactive); the mix of calls is not that of the screen. Calls follow the shape of the dose curve; as a rule, active = well fitted activation curve with a large enough effect; inconclusive = small, poorly fitted or top-dose-only effect; inactive = no such curve, though single readings can be large or run the other way. Potencies beside an inconclusive call are fits to weak or partial responses and may not hold up.
# Experiment: qHTS Assay for Enhancers of SMN2 Splice Variant Expression; also: nearly all actives have a fitted effect of over 55% in size; as to activity change, positive = activation: % of control where 0% means no effect
# Details: HEK293 SMN2-luciferase splicing reporter, luminescence, 30-36 h; activity change, positive = activation: at 46.1 µM (top of the series)
# In short: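 HEK293 cells carry an SMN2 minigene-luciferase reporter in which exon 7 inclusion puts luciferase in frame. Cells were seeded at 2000 cells/well, attached for 10-12 hours, then exposed to compounds for 30-36 hours at 37C before ONE-Glo luminescence.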
# Potency is read from the fitted curve at half-maximal effect; tags tell the direction and shape of the fitted curve.
SMILES,Potency,"activity change, positive = activation"
O=c1ccn(Cc2ccccc2Cl)cc1,"inconclusive: 0.708 µM [activator, full curve, poor fit]",–
Cc1ccc(CCNC(=O)NC(C)(C)C)cc1,active: 3.55 µM,–
CCOC(=O)c1cnn(-c2cc(C)nc3c(-c4ccccc4)c(C)nn23)c1N,–,inactive: 12.2%
Cc1ccc(NC(=O)Cn2c(=O)n(CCC(=O)N3CCc4ccccc4C3)c(=O)c3ccccc32)cc1,–,inactive: 2.16%
CC(=O)N1CCc2cc(S(=O)(=O)NCCC(=O)Nc3ccc4c(c3)OCCO4)ccc21,"inconclusive: 0.447 µM [activator, full curve, poor fit]",–
CCOC(=O)c1cccc(NC(=O)c2cnccn2)c1,"inconclusive: 1.41 µM [activator, full curve]",–
O=c1c(-c2ccc(F)cc2)coc2c3c(ccc12)OCCO3,"inconclusive: 10 µM [activator, partial curve]",–
CN(C)c1ccc(/C=C2\SC(=O)N(CC(O)Cn3c4ccccc4c4ccccc43)C2=O)cc1 (centres undefined),–,inactive: -9.94%
Cc1sc2nc(C(C)C)oc(=O)c2c1C,"inconclusive: 2.24 µM [activator, single point]",–
Cc1cc(Cl)c(S(=O)(=O)NCC2CCCO2)cc1OCC(N)=O (centres undefined),"inconclusive: 0.562 µM [activator, full curve]",–
CC(=O)Nc1ccc(Nc2cc(C)nc3c(-c4ccc(Cl)cc4)cnn23)cc1,"inconclusive: 35.5 µM [activator, single point]",–
CCOC(=O)C1=C(O)c2ccccc2C(=O)/C1=C\c1ccc(CC)cc1,"inconclusive: 35.5 µM [activator, single point]",–
Fc1cc(Br)ccc1NC(=S)NCCc1ccccc1,"inconclusive: 12.6 µM [activator, partial curve]",–
CC1CC(C)CN(S(=O)(=O)c2cccc(C(=O)OCCN3CCCC3=O)c2)C1 (centres undefined),"inconclusive: 6.31 µM [activator, partial curve, poor fit]",–
CSc1ccc(-c2nc3ccc(C)cn3c2Nc2ccccc2C)cc1,"inconclusive: 0.708 µM [activator, partial curve, poor fit]",–
CCOC(=O)CSCC(=O)Nc1cc(C)ccc1C,"inconclusive: 0.0794 µM [activator, full curve]",–
COc1cc(OC)cc(C(=O)Nc2nc3ccccc3[nH]2)c1,"inconclusive: 35.5 µM [activator, single point]",–
CN(/N=C/c1ccncc1)c1cnc2ccccc2n1,active: 11.2 µM,–
C=CCOC(=O)CCCC(=O)NC1CCCCC1,–,inactive: -2.39%
Cc1ncsc1CCOC(=O)c1ccc(Cl)cc1,–,inactive: 6.48%
Cc1cccc(C(=O)N[C@H](C(=O)Nc2ncc(C)s2)C(C)C)c1,active: 14.1 µM,–
O=c1n(Cc2cccc(C(F)(F)F)c2)c2ccccc2c2nc(-c3ccccc3)nn12,–,inactive: 15.6%
Cc1ccc(CNC(=O)CCCCCn2c(=O)c3sccc3n(CC(=O)N(C)c3ccccc3)c2=O)cc1,–,inactive: -5.52%
Cc1ccc(NC(=O)c2noc(C(C)C)c2[N+](=O)[O-])cc1,–,inactive: -11.6%
COC(=O)COc1ccc(-c2nn(C)c(=O)c3ccccc23)cc1,"inconclusive: 28.2 µM [activator, partial curve, poor fit]",–

SMILES,Potency,"activity change, positive = activation"
Cc1cccc(/C(N)=N/OC(=O)c2ccccc2Cl)c1,active: 11.2 µM,–
CC1=C(C(=O)OCc2ccc3c(c2)OCO3)C(c2ccc(Cl)cc2)NC(=O)N1 (centres undefined),–,inactive: -34.9%
CCN(CC)CCn1c2ccccc2c2nc(C)sc21,"inconclusive: 0.447 µM [activator, full curve, poor fit]",–
CN(C)c1ccc(C2(c3ccc(N(C)C)cc3)OC(=O)c3cc(N(C)C)ccc32)cc1,–,inactive: -2.39%
CCCC(=O)Nc1nc(-c2ccc(OC)cc2)cs1,"inconclusive: 2.82 µM [activator, single point]",–
Oc1cc(O)c2c(c1)O[C@H](c1ccc(O)c(O)c1)[C@@H](O)C2,"inconclusive: 35.5 µM [activator, single point]",–
COc1cccc(CNC(=O)CCl)c1,"inconclusive: 6.31 µM [activator, partial curve, poor fit]",–
COc1ccc(OC)c(-c2oc3ccccc3c(=O)c2O)c1,"inconclusive: 5.62 µM [activator, partial curve, poor fit]",–
CC(C)C(=O)NNc1nc2ccccc2s1,"inconclusive: 17.8 µM [activator, single point]",–
Fc1ccc(-c2nc3ccccc3[nH]2)cc1,active: 10 µM,–
COc1cccc2c(=O)n(CC(=O)Nc3ccc(F)cc3)ccc12,"inconclusive: 10 µM [activator, single point]",–
Cc1csc2cc(-c3cccc([N+](=O)[O-])c3)c(-c3cccc([N+](=O)[O-])c3)c[n+]12,–,inactive: -5.39%
CCNc1nc(SCCOc2ccc(Br)cc2)nc(N(C)C)n1,–,inactive: 10.2%
Cc1[nH]n(-c2cccc(Cl)c2)c(=O)c1C=NCC(C)C,active: 12.6 µM,–
CCCOc1ccc(-c2nnc(-c3ccco3)o2)cc1,"inconclusive: 3.55 µM [activator, single point]",–
O=C(N/N=C/C(Cl)=C/c1ccccc1)c1ccccn1,active: 12.6 µM,–
Cc1ccc(C(=O)Nc2ccccc2N2CCN(C(=O)C(C)C)CC2)cc1,–,inactive: -10%
O=C(/C=C/c1ccccc1Cl)NCCc1ccccc1,"inconclusive: 12.6 µM [activator, single point]",–
C/C(=C\C(=O)c1ccccc1)Nc1ccc2c(c1)OCO2,active: 22.4 µM,–
O=C(Nc1ccc2ccccc2c1)c1cccnc1,"inconclusive: 11.2 µM [activator, partial curve, poor fit]",–
CC1CCCCC1N1CN=C(Nc2nc3ccccc3s2)NC1 (centres undefined),"inconclusive: 0.398 µM [activator, partial curve, poor fit]",–
COc1ccc2cc(CN(CCc3ccccc3)Cc3nnnn3Cc3ccco3)c(=O)[nH]c2c1,–,inactive: -8.45%
COc1ccc(-c2noc(-c3ccc(C)cc3)n2)cc1,active: 17.8 µM,–
C=CCOc1c(CNc2cccc(C(=O)O)c2)cccc1OC,"inconclusive: 20 µM [activator, partial curve]",–
Cc1cccc2[nH]c(-c3ccc(NC(=O)c4ccco4)cc3)nc12,active: 14.1 µM,–

SMILES,Potency,"activity change, positive = activation"
O=C(COC(=O)CC1CC2CCC1C2)Nc1cccc(S(=O)(=O)NC2=NCCCCC2)c1 (centres undefined),"inconclusive: 0.0316 µM [activator, full curve, poor fit]",–
Cc1cc2nc(N)sc2cc1C,"inconclusive: 20 µM [activator, single point] and inconclusive: 14.1 µM [activator, partial curve, poor fit]",–
Cc1ccc(-c2csc3ncnc(Oc4ccc5c(C)cc(=O)oc5c4)c23)cc1,–,inactive: -10.2%
O=C(CN1C(=O)c2ccccc2C1=O)NCCc1c[nH]c2ccc(Cl)cc12,"inconclusive: 5.62 µM [activator, single point]",–
Cc1ccc(NC(=O)c2ccc3snnc3c2)cc1Cl,"inconclusive: 20 µM [activator, partial curve, poor fit]",–
C=C(C)Cn1c(SCC(=O)Nc2cc(C)ccc2C)nc2sc3c(c2c1=O)CCCC3,–,inactive: -6.02%
CCCC(=O)NC(=S)Nc1nc(-c2ccc(OC)cc2)cs1,"inconclusive: 8.91 µM [activator, partial curve, poor fit]",–
CCCCC/C=C\C/C=C\C/C=C\CCCCCCC(=O)NCCc1ccc(O)c(O)c1,–,inactive: 1.99%
O=C(/C=C/c1ccccc1)NC1CC2CCC1C2 (centres undefined),"inconclusive: 20 µM [activator, partial curve, poor fit]",–
CC(=O)Nc1cccc(-c2nc3ccccc3s2)c1,active: 12.6 µM,–
Cc1cccc(OCCCC(=O)Nc2ccc(S(=O)(=O)Nc3onc(C)c3C)cc2)c1C,"inconclusive: 0.0708 µM [activator, full curve, poor fit]",–
COc1ccc(-c2cc(C(=O)O)c(C)o2)cc1OC,active: 0.631 µM,–
O=C(NN1CCOCC1)c1cccc(COc2cccc(Br)c2)c1,"inconclusive: 12.6 µM [activator, partial curve, poor fit]",–
CC1=C(C(=O)Nc2ccccn2)C(c2ccccc2Cl)NC(=S)N1 (centres undefined),"inconclusive: 10 µM [activator, partial curve]",–
COC(=O)NCc1ccc2c(c1)OCO2,"inconclusive: 0.0032 µM [activator, full curve, poor fit]",–
CCOC(=O)CC1C(=O)NC2CCCCC2N1C(=O)Nc1ccc(Cl)cc1 (centres undefined),"inconclusive: 20 µM [activator, partial curve, poor fit]",–
C[C@@H]1C=C[C@](Cc2ccccc2)(C(=O)NCC2CC2)N1C(=O)c1ccccc1,"inconclusive: 17.8 µM [activator, partial curve, poor fit]",–
Cc1cccc(NC(=O)C2CCCN2S(=O)(=O)c2ccc(F)cc2)c1C (centres undefined),"inconclusive: 0.005 µM [activator, full curve, poor fit]",–
Cc1noc(C)c1-c1ccc2ncnc(NC3CC3)c2c1,active: 7.94 µM,–
Cc1nnc(NC(=O)c2ccc3ccccc3c2)o1,–,inactive: -12.7%
CSc1ccc(CCNC(=O)Cn2ncc3c(=O)oc4ccccc4c32)cc1,–,inactive: -8.57%
C=CCC(Nc1ccc(OC)cc1)(C(=O)OCC)c1ccccc1 (centres undefined),–,inactive: 8.93%
CCOC(=O)c1cc(NC(=O)Nc2ccc(OC)c(OC)c2)c(C)nc1C,"inconclusive: 1.78 µM [activator, full curve, poor fit]",–
Cc1ccc(Nc2nc(N)c([N+](=O)[O-])c(NCc3ccco3)n2)cc1C,"inconclusive: 12.6 µM [activator, partial curve]",–
